Results reported in PubChem BioAssay (NCI).
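In this assay, cells in 96-well plates receive the compound at five concentrations for 48 hours. Endpoints are linearly interpolated between the surrounding concentrations. The concentration for 50% growth inhibition is given as GI50. TGI denotes the concentration required for complete inhibition of growth.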

System: NCI-H322M lung
Test: NCI tumour cell line growth inhibition, 48 h

Row | SMILES | TGI [µM] | GI50 [µM]
1 | COc1ccc(/C=c2/sc3n(c2=O)NC(c2ccc(Cl)cc2)NN=3)cc1 (stereo unspecified) | > 100 | 
2 | Cc1ccc(C2CC(c3cccc(Nc4ccncc4)c3)=NN2c2ccccc2)cc1 (stereo unspecified) | 3.05 | 1.67
3 | O=C1NC(S(=O)(=O)O)=NNC12c1ccccc1-c1ccccc12 | > 10 | 
4 | Cc1cc2c(cc1C)C(=O)/C(=N/Nc1ccc(F)cc1)CCO2 | > 100 | 
5 | Cc1c(-c2ccccc2)c(C#N)c2nnn(-c3cccc(Cl)c3)c(=O)n12 | > 100 | 
6 | C=C1C(=O)OC2CC3(C)CCCC(C)C3=CC12 (stereo unspecified) | 28.9 | 
7 | CCC(=O)NCCc1c2c3c(ccnc3c3ncsc13)-c1ccccc1N2 | > 100 | 
8 | O=[As](O)(O)c1ccc2nc3cc([As](=O)(O)O)ccc3nc2c1 | > 100 | 
9 | O=C(NNC(=S)Nc1ccccc1)c1ccccn1 | > 100 | 2.02
10 | Cc1c2c(ccc3ccccc32)c[n+]2ccccc12 | 38.8 | 
11 | CC(CCCC1SCC2NC(=O)NC21)C(=O)O (stereo unspecified) | > 100 | 
12 | O=c1c(-c2ccc(O)cc2)coc2cc(OC3OC(CO)C(O)C(O)C3O)cc(O)c12 (stereo unspecified) | > 100 | 
13 | CC(=O)OCC(OC(C)=O)C(OC(C)=O)C(OC(C)=O)C(/C=N\Nc1nc2ccccc2c(=O)[nH]1)=N/Nc1nc2ccccc2c(=O)[nH]1 (stereo unspecified) | > 100 | 
14 | CC1=CC(C)(C)Nc2ccc(CSc3ccccc3)cc21 | > 100 | 
15 | COC(=O)C(C(=O)C(=O)Nc1ccc(OC)cc1[N+](=O)[O-])c1nc2cc(C)c(C)cc2[nH]c1=O (stereo unspecified) | > 100 | 
16 | Cc1nnc(-c2ccc(C)c(-c3ccc(C(=O)NCc4ccc(Cl)cc4)cc3)c2)o1 | > 25 | > 25
17 | COCOCC[C@@H]1CC=CC(NC(=O)OCc2ccccc2)C1/C=C/C(=O)CCC1OCCO1 (stereo partly specified) | > 100 | 
18 | COC(=O)c1ccc2c(c1)c1c(C)c3ccncc3c(C)c1n2C | > 100 | 0.524
19 | CCOC(=O)C1SC(=Nc2ccc(Cl)cc2C)N=C1C (stereo unspecified) | 70.4 | 
20 | Cc1ccc(C)n1-n1c(-c2ccccc2)n[nH]c1=O | > 100 | 
21 | CCOC(=O)c1cc(-c2ccc(OC)c(OC)c2)[nH]c1N/N=C/c1c(Cl)cccc1Cl | 25.8 | 4.6
22 | CC[C@]12C=CCN3CC[C@@]4(c5ccc(OC)cc5N(C)[C@H]4[C@@](O)(C(=O)OC)[C@@H]1OC(=O)CCC(=O)N[C@H](Cc1c[nH]c4ccccc14)C(=O)OC)[C@@H]32 | 40.7 | 10
23 | N#Cc1c(N)nc(N2CCSCC2)c(C#N)c1-c1ccc(O)cc1 | > 100 | 21.1
24 | O=C(CN(c1ccc(S(=O)(=O)O)cc1)c1ccc(S(=O)(=O)O)cc1)Nn1cnc2ccc(S(=O)(=O)N(c3ccc(S(=O)(=O)O)cc3)c3ccc(S(=O)(=O)O)cc3)cc2c1=O | > 100 | 
25 | C=CCn1cnc2c(=O)[nH]c(Nc3ccccc3)nc21 | > 100 | 
26 | COC(=O)c1c(C(=O)OC)c2c3ccccc3n(C)c2c2c1c1ccccc1n2C | > 100 | 

Row | SMILES | TGI [µM] | GI50 [µM]
27 | CN(C)C(=O)C1CCN(Cc2c[nH]c3ccccc23)CC1 | > 100 | 
28 | O=C(Nc1cccc(Cl)c1)c1cc(N=Nc2ccc([N+](=O)[O-])cc2Cl)ccc1O | 8.63 | 2.78
29 | COc1cc(/C=C\c2ccc(OC(C)=O)cc2)cc(OC)c1OC | > 100 | 
30 | O=S(=O)(OI(O)CC(F)(F)F)C(F)(F)F | > 100 | 
31 | CC(=O)O/N=C(Cl)/C(Cl)=N/OC(C)=O | > 100 | 
32 | COC(=O)C(=O)C(C(=O)C(=O)Nc1ccc(C)cc1)c1nc2ccc(C(=O)c3ccccc3)cc2[nH]c1=O (stereo unspecified) | > 100 | 
33 | COc1ccc(N2C(=O)/C(=C\c3cccc(Oc4ccccc4)c3)SC2c2ccccc2)cc1 (stereo unspecified) | > 100 | 
34 | CCN(CC)CC(C)(C)C(=O)/C=C/c1ccc(/C=C/C(=O)C(C)(C)CN(CC)CC)cc1 | 2.82 | 
35 | CC(=O)N=C1N(/C=C2\C(=O)Oc3ccccc3C2=O)C(=O)/C(=C/c2ccccc2Cl)N1C | > 100 | 
36 | O=C1C2ON3c4ccccc4C(=O)C3(c3ccccc3)C2C(=O)N1c1ccccc1 (stereo unspecified) | > 100 | 
37 | C=CCc1cccc(/C=N\N=C(/N)NO)c1O | > 100 | 
38 | CCOC(=O)c1csc(NC(=O)COc2cccc(/C=C3\CSc4ccccc4C3=O)c2)n1 | 26.8 | 13.7
39 | NC(=S)NS(=O)(=O)c1ccc(F)cc1F | > 100 | 
40 | CC(=N)N(C)O | > 100 | 
41 | CC(=O)Nc1ccc2cc3[nH]c4cc(NC(C)=O)ccc4c3nc2c1 | > 100 | 
42 | O=C1C(Cl)=C(N2CCN(c3ccccn3)CC2)C(=O)c2ncccc21 | 24.8 | 
43 | CCN(CC)CCCC(C)Nc1cc(/C=C/c2ccc(Cl)cc2)nc2cc(N(C)C)ccc12 (stereo unspecified) | 3.22 | 
44 | COc1ccc(-c2nc(-c3cnccn3)n(COCCO)n2)cc1 | > 100 | 
45 | COc1cc2c(c(OC(C)=O)c1OC(C)=O)-c1ccc(SC)c(=O)cc1C(NC(C)=O)CC2 (stereo unspecified) | 46 | 
46 | O=C(O)c1ccc(Nc2nc3cc(C(F)(F)F)ccc3nc2-c2ccccc2)cc1 | 70.4 | 
47 | Nc1c(N2CCCCC2)c(=O)nc2[nH]/c(=C\c3ccccc3)c(=O)n12 | > 100 | 
48 | Cc1ccc(NC(=O)CC/C(CC(=O)C(C)(C)C)=N\Nc2ccc([N+](=O)[O-])cc2[N+](=O)[O-])cc1C | > 100 | 
49 | O=C(O)CCSC(=S)Nc1cccc(F)c1 | > 100 | 
50 | NNC(=O)N/N=C1\C(=O)N(c2nccs2)C(=O)C(=O)C1c1nc2ccccc2s1 (stereo unspecified) | > 100 | 
51 | CCN(CC)CCNc1ccc2nnn3c4ccccc4c(=O)c1c23 | 9.09 | 
52 | COc1cccc2cc(C(=O)Nc3ccccn3)c(=N)oc12 | > 100 | 

Row | SMILES | TGI [µM] | GI50 [µM]
53 | CCCCCCN(C)Cc1ccc(OCCOc2ccc(CN(C)CCCCCC)cc2)cc1 | 4.74 | 1.78
54 | C[C@]12CC/C(=N\OCCN3CCCCC3)C=C1CCC1C2CC[C@@]2(C)C1CC[C@]2(C)O (stereo partly specified) | 34.6 | 
55 | O=C(O)CCSC(=O)Nc1ccccc1Cl | > 100 | 
56 | CCOc1c(C#N)c2c(N)ncnc2n1C1OC(CO)C(O)C1O (stereo unspecified) | > 59.5 | 3.95
57 | BrCC(Br)(c1ccccc1)c1ccccc1-c1cc(-c2ccccc2)cc(-c2ccccc2)n1 (stereo unspecified) | > 58.3 | 
58 | O=[N+]([O-])c1cccc2nc3ccccc3c(NCCCN3CCCCC3)c12 | 0.0894 | 
59 | O=C(O)CCC(NC(=O)c1ccc(CNc2nc3ccccc3nc2C(=O)O)cc1)C(=O)O (stereo unspecified) | > 100 | 
60 | N#Cc1cc(NC(=O)c2ccccc2)c(=O)n2c1[nH]c1ccccc12 | > 100 | 
61 | O=C(O)Cn1c2c(c3c(O)cccc31)C(=O)c1ccccc1-2 | > 100 | > 100
62 | Cc1cc(C)n(CN(Cn2nc(C)cc2C)c2ccccc2)n1 | > 100 | 
63 | Cn1c(=O)oc2cc(Br)ccc21 | > 100 | 
64 | CC1CCc2c(c(CC3CC(=O)NC(=O)C3)nn2-c2ccccc2)C1 (stereo unspecified) | > 100 | 
65 | OC1CCC[C@@H]1Sc1ccccc1 (stereo partly specified) | > 100 | 
66 | CCN(CC)COC(=S)S | > 100 | 
67 | C/C(CCn1[nH]c(=O)ccc1=O)=N\Nc1ccc([N+](=O)[O-])cc1[N+](=O)[O-] | > 100 | 
68 | CC(=O)O[C@H]1C(=O)[C@@]2(C)[C@H]([C@H](OC(=O)c3ccccc3)[C@@]3(O)C[C@H](O)C(C)=C1C3(C)C)[C@]1(OC(C)=O)CO[C@@H]1C[C@@H]2O | > 100 | 
69 | CC1OC(O[C@H]2CC[C@]3(C=O)[C@H]4CC[C@]5(C)[C@H](C6=CC(=O)OC6)CC[C@]5(O)[C@@H]4C=C[C@]3(O)C2)CC(O)C1O (stereo partly specified) | 1.7 | 
70 | CN1CCN(Cc2ccc(NC(=O)c3cncc(C#Cc4cnn5ccccc45)c3)cc2C(F)(F)F)CC1 | 3.74 | 1.4
71 | NC(=Nc1nc(-c2ccccn2)cc2ccccc12)c1ccccn1 |  | 0.0356
72 | O=C(O)C12C3CCC(O3)C1(C(=O)O)C1CCC2O1 (stereo unspecified) | > 100 | 
73 | N#Cc1c(N)c(C#N)c2c(c1-c1ccc(Cl)cc1)COc1ccccc1-2 | 21.3 | 
74 | O=C(N/N=C(/COc1cccc(Cl)c1)N=Cc1cccnc1)c1ccncc1 | > 100 | 
75 | COc1ccc(CNc2cnc3cc(N)cc(N)c3n2)cc1 | > 100 | 48.8
76 | COc1ccc2c(c1)C(=O)c1c-2n(CCCN)c(=O)c2cc(OC)c(OC)cc12 | 1.79 | 0.476
77 | COc1ccc2c(c1)C(N)=C(Cc1ccncc1)C2=O | > 100 | 
78 | CC[C@@H](C)Nc1cc(C(=O)NC2CC3CCC(C2)N3c2ccc(C(=O)C3CC3)cn2)c(C)cc1C(N)=O (stereo partly specified) | > 100 | 15.4

Row | SMILES | TGI [µM] | GI50 [µM]
79 | CN1C(=O)C23CCCCC2CC1(c1ccccc1)S3 (stereo unspecified) | > 100 | 
80 | [O-][n+]1c(-c2ccccc2)c2nc3ccccc3nc2c2ccccc21 | > 100 | 
81 | CCO[C@@H]1OC(=O)[C@@](C)(C(C)=O)[C@@H]1C | 48.4 | 
82 | C=C1CC(CN2CCC(=O)NC2=O)(c2ccccc2)OC1=O (stereo unspecified) | 30 | 
83 | CCCOC1OC(CS(=O)(=O)O)C(O)C(O)C1O (stereo unspecified) | > 100 | 
84 | CC(C)(C)c1ccc(O)c(CN(Cc2cc(C(C)(C)C)ccc2O)C2CCCCC2)c1 | 43.4 | 
85 | c1ccc(C2=Nc3cccc4cccc(c34)N2)cc1 | > 100 | 
86 | COc1ncnc2c1cnn2Cc1cn(CCCCO)nn1 | > 100 | 
87 | COC(=O)C1C(C(=O)OC)C1(Br)CBr (stereo unspecified) | > 100 | 
88 | CC(=O)[O-].[O-]c1c(Cl)cc(Cl)cc1/C=N/Nc1ccccn1.[Zn+2] | 59.5 | 
89 | CC(=O)N/C(=C\c1ccc(/C=C(\NC(C)=O)C2=NC3C(=O)c4ccccc4C(=O)C3N2)cc1)C1=NC2C(=O)c3ccccc3C(=O)C2N1 (stereo unspecified) | > 100 | 
90 | O=C(Nc1nc(-c2ccc(Cl)cc2)nc2c1sc(=S)n2-c1ccccc1)C(F)(F)F | 43.1 | 6.95
91 | CN(C)CCCNC(=O)c1cc(NC(=O)c2cc(NC(=O)[C@@H]3C[C@H]3C(=O)Nc3cc(C(=O)Nc4cc(C(=O)NCCCN(C)C)n(C)c4)n(C)c3)cn2C)cn1C | > 100 | 
92 | CN(C)c1ccc(C(=NN)c2ccc(N(C)C)cc2)cc1 | > 100 | 
93 | Cn1c2c3c(F)c(F)ccc3nc-2cc2ccccc21 | 19.6 | 
94 | COc1cc(/C=C\c2cc(/C=C\c3ccc(O)c(OC)c3)n(C(=O)CNc3ccc(Cl)cc3)n2)ccc1O | 18.2 | 3.59
95 | O=C1C(Cl)C(c2cc3cc(Br)ccc3nc2Cl)N1c1c(Cl)cccc1Cl (stereo unspecified) | > 25 | 
96 | CC(O)CN1c2ccccc2Sc2ccc(Cl)cc21 (stereo unspecified) | > 10 | 
97 | CCOC(=O)NC(=S)c1ccc(O)c2ccccc12 | > 100 | 
98 | CCCCN=C1OCc2[nH][nH]c(=O)c21 | > 100 | 
99 | CCCCCCCCCOC(=S)NCCCCC | > 100 | 
100 | C=C1CCC2C3(C)COC(c4ccc(Cl)cc4)OC3CCC2(C)C1/C=C/C1=CCOC1=O (stereo unspecified) | > 100 | 28.7
101 | C=C1C(=O)OC2C1C(OC(=O)/C(C)=C\C)CC1(CO1)C1C(O)C=C(C)C21O (stereo unspecified) | 40.8 | 
102 | C[C@]12CC[C@@H]3c4ccc(OCCN5CCCC5)cc4CC[C@H]3[C@@H]1CCC2=O | > 100 | 
